In PMC10567701:
Results are given in words; binding and its absence hold for the method and conditions named. In cells and extracts the contact can be indirect. Some results given as binding are weak or reduced against the parent protein; the word gives no strength.

Sequences of proteins named here, by UniProt entry; tags and fusion partners are left off. Residues count along the entry.
UniProt P0ADC1, residues 19-193: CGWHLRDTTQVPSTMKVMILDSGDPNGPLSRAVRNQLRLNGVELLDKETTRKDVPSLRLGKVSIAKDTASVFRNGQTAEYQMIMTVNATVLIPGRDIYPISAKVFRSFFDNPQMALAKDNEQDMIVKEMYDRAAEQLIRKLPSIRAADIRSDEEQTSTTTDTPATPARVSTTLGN

Experiments:
[1] = target: LptM^His (Escherichia coli) (UniProt P0ADN6); assay: pull-down; Ni-affinity purification of LptM^His from the DDM-solubilized envelope fraction (native conditions); Ni-NTA 2 h at 4 °C, 50 mM Tris-HCl pH 8, 150 mM NaCl, DDM; SDS-PAGE, Coomassie staining or Western blotting
[2] = target: LptE^His (Escherichia coli) (UniProt P0ADC1); assay: pull-down; Ni-affinity purification of LptE^His from the DDM-solubilized envelope fraction of wild-type (lptM^+) cells with pLptDE^His; Ni-NTA 2 h at 4 °C, 50 mM Tris-HCl pH 8, 150 mM NaCl, DDM; SDS-PAGE or BN-PAGE, Coomassie staining or Western blotting

B1: LptA (protein, UniProt P0ADV1 28-185)
chain: VTGDTDQPIHIESDQQSLDMQGNVVTFTGNVIVTQGTIKINADKVVVTRPGGEQGKEVIDGYGKPATFYQMQDNGKPVEGHASQMHYELAKDFVVLTGNAYLQQVDSNIKGDKITYLVKEQKMQAFSDKGKRVTTVLVPSQLQDKNNKGQTPAQKKGN
binding [1]: binds

B2: LptB (protein, UniProt P0A9V1 1-241)
chain: MATLTAKNLAKAYKGRRVVEDVSLTVNSGEIVGLLGPNGAGKTTTFYMVVGIVPRDAGNIIIDDDDISLLPLHARARRGIGYLPQEASIFRRLSVYDNLMAVLQIRDDLSAEQREDRANELMEEFHIEHLRDSMGQSLSGGERRRVEIARALAANPKFILLDEPFAGVDPISVIDIKRIIEHLRDSGLGVLITDHNVRETLAVCERAYIVSQGHLIAHGTPTEILQDEHVKRVYLGEDFRL
binding [1]: binds

CGLKGPLYFPPADKNAPPPTKPVETQTQSTVPDKNDRATGDGPSQVNY (peptide, UniProt P0ADN6 20-67, tri-acylated (mature tri-acylated LptM)) [LptM (endogenous)]
binding [2]: binds

B3: OmpA (protein, UniProt P0A910 22-346)
chain: APKDNTWYTGAKLGWSQYHDTGFINNNGPTHENQLGAGAFGGYQVNPYVGFEMGYDWLGRMPYKGSVENGAYKAQGVQLTAKLGYPITDDLDIYTRLGGMVWRADTKSNVYGKNHDTGVSPVFAGGVEYAITPEIATRLEYQWTNNIGDAHTIGTRPDNGMLSLGVSYRFGQGEAAPVVAPAPAPAPEVQTKHFTLKSDVLFNFNKATLKPEGQAALDQLYSQLSNLDPKDGSVVVLGYTDRIGSDAYNQGLSERRAQSVVDYLISKGIPADKISARGMGESNPVTGNTCDNVKQRAALIDCLAPDRRVEIEVKGIKDVVTQPQA
binding [1]: no binding
